Sequences with one replicate were seen in a single cluster, so their values are uncertain.
System: ATP
Assay: switch fluorescence ratio, 500 uM ATP over buffer (Cy3 cluster intensity, sum of 5 cycles each) (fold (ratio)); higher = stronger signal-on switching upon ATP binding; sequences stand for … in TCGTCGGCAGCGTCAGATGTGTATAAGAGACAGTTTTTTTTTTTTTTTTTTTTTTTTT…TC
Details: aptamer strand: ATP DNA aptamer (quencher-CACCTGGGGGAGTATTGCGGAGGAAGG + anchor), 100 nM annealed; ATP concentration: 500 uM; one replicate
Outline: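 Per cluster, summed Cy3 intensity from the target cycles was divided by that from the buffer cycles to give the fluorescence ratio, then averaged per switch-domain sequence. Clusters outside 100-1000 RFU were excluded. The Cy3-labelled switching-strand clusters, on a modified Illumina MiSeq flow-cell, were annealed to 100 nM quencher-labelled ATP aptamer and imaged in selection buffer, then after 15 min with 500 uM ATP at 22 °C, for five cycles with NaOH stripping and re-annealing between them.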
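Further: ATP exposure 15 min at 22 °C before imaging.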

| Sequence | switch fluorescence ratio |
| --- | --- |
| TATCCCGATA | 1 |
| CAAGTATTTG | 0.964 |
| CTCTCTACTT | 0.995 |
| CTGCCGGTG | 1.02 |
| TCTCGGCCTT | 1.08 |
| GGCAGAATCA | 0.991 |
| TTGGCGTCTT | 0.996 |
| TTTCTGATGT | 0.958 |
| TATCATTTAC | 1.02 |
| TGAAGTTGT | 1.07 |
| AAATGTACTT | 0.997 |
| GAAGGGGG | 0.991 |
| GAGAGTGAGA | 0.985 |
| TTCTAGGATC | 1.04 |
| TCGAACGTGC | 1.56 |
| CTAGGCCGGA | 1.11 |
| TTCAACGTCA | 1.08 |
| AATGGCCGGT | 0.988 |
| GATTCACTGA | 1.02 |
| TTAGCTGGCC | 1.01 |
| CCCATCCCCA | 1.12 |
| TACGGAAGAG | 1.11 |
| CATGCTGTAC | 2.17 |

| Sequence | switch fluorescence ratio |
| --- | --- |
| TCTCCATCTC | 1.12 |
| AGGGTAGCAG | 1.03 |
| TATATCAGTG | 0.996 |
| CGGTATAATG | 0.989 |
| GGACTAGACG | 1.02 |
| CACGTGCTGA | 0.925 |
| CATAAGCTTT | 1.03 |
| CAACTCTTG | 1 |
| GGGATATTCG | 1.13 |
| AGAAGAAAAC | 0.906 |
| GACAGCTGGA | 1.06 |
| GACTGTCGCT | 0.927 |
| AGCTTGGCAC | 0.997 |
| TCCGGTGAGG | 0.936 |
| CGTCAGGTGA | 2.48 |
| CGTTGGATTT | 1.01 |
| TTTGCCTGAA | 1.03 |
| GCCAAGCGCG | 1.04 |
| ACAATCGCTT | 0.979 |
| TGGCTAGGGA | 0.97 |
| GTGATATGTG | 1.02 |
| AAGAGTCTCG | 0.96 |
| CGATAACAAT | 1.02 |

| Sequence | switch fluorescence ratio |
| --- | --- |
| GGTACCTATT | 1.08 |
| AGCGCAAGTG | 0.975 |
| GTTACGGGTT | 1.01 |
| GGAAATCTGG | 0.972 |
| AACTACGAGA | 1.12 |
| CACCATGAAA | 1.03 |
| TGGACTCGTC | 1.02 |
| GGTGTAGTGC | 0.97 |
| GTGTAGGGAG | 1.02 |
| TAGTCACATA | 1.02 |
| TACATAGTGC | 1.03 |
| AGAGGGGCGC | 1.11 |
| TAGCCTCCA | 1.07 |
| TGAGCTTACG | 1.07 |
| TGAGGAGTGT | 0.975 |
| ATGCTTCGTA | 1.06 |
| TTGCTAGGA | 0.971 |
| TGACTCAATT | 2.97 |
| ATATTGGTGC | 1.07 |
| AGGGTCTCTT | 1.04 |
| TCTTCAATGA | 0.998 |
| GGTTCTCTAA | 1.01 |
| ATAAAGTGAG | 0.992 |

| Sequence | switch fluorescence ratio |
| --- | --- |
| AAAATTCGAG | 1.02 |
| GAGCCTGCCA | 0.937 |
| GTTACTCAAG | 1.03 |
| GTTAGGCCTT | 1.05 |
| AGTAGGATCA | 0.979 |
| GTTGCACGTG | 0.974 |
| TTAGAGAAGG | 1.07 |
| AAGCAAAGGG | 1.01 |
| ATGAGAGTCA | 0.996 |
| GAGAATAACA | 1 |
| GCCCGCTTGG | 1.05 |
| CCTAGTGCTA | 1.3 |
| CATATTCACC | 1.04 |
| GAGCGAACGA | 1.08 |
| AGCGAGGA | 1.03 |
| ACGCATTAGG | 1.06 |
| GCGTGCCACC | 0.984 |
| AGGGCTTAT | 1 |
| TACCCCATTT | 1.16 |
| ACCTGTCTCG | 1.09 |
| AAGGGTGTCG | 1 |
| TAGGCGGGCT | 0.958 |
| TTAGATATTG | 1.03 |

| Sequence | switch fluorescence ratio |
| --- | --- |
| TCAGTGTGTG | 0.975 |
| TAGATGGCGT | 1.01 |
| AGCGAGCTAG | 1.01 |
| TTTATTTCAG | 0.993 |
| CAGTGTTTTG | 0.983 |
| TACGGGGATA | 0.95 |
| GCATTATTTC | 1.02 |
| GGAGGGCGCC | 0.986 |
| TCGAATGTGG | 1.02 |
| TAGTGGAAGT | 0.96 |
| CAGGGTGAA | 1.02 |
| AATTAAATGA | 0.96 |
| GTTCCGCGGG | 1.14 |
| GAAGGCCGCG | 1.02 |
| CATAGCCTGA | 1.02 |
| TAGAAATACA | 1.09 |
| AACGGCAAAC | 3.7 |
| CTACTACACT | 1.31 |
| ACGGGGACCT | 1.1 |
| CAAAGAACAG | 1 |
| ATCGGGAAGA | 1.05 |
| CCGTAGTAAT | 4.28 |
| TTATGGCGTC | 0.899 |

| Sequence | switch fluorescence ratio |
| --- | --- |
| GTAGGCGGA | 0.995 |
| TCCACGAGGA | 1 |
| AGCATGGCT | 0.948 |
| ATCCATTTAT | 1.01 |
| CACCGGAGCG | 1.58 |
| AGAACCAGTT | 0.983 |
| AGTTGTCTAT | 1 |
| CGATACGCGT | 1.02 |
| AGTCGGGACA | 1.05 |
| GGACTAGGCT | 1.01 |
| AGTTTGCCGG | 1.05 |
| CACTCCCTGT | 1.24 |
| TTAACTGTCT | 0.972 |
| TCCGTTTCAG | 0.989 |
| TGGGGTCGAA | 0.941 |
| AAGATAAGAG | 0.969 |
| GTAATGAATC | 0.963 |
| AGTGCTGAGC | 0.984 |
| CAAGGCGTCA | 1 |
| GCTCCGGGGA | 3.02 |
| AGGGATATAG | 0.98 |
| GCACGAAACT | 1.17 |
| TCTTACAGGT | 1.14 |

| Sequence | switch fluorescence ratio |
| --- | --- |
| TAAATAGTCG | 0.971 |
| TCCTGATCTG | 1 |
| TGGATCTACT | 1.03 |
| GGGATCTTTT | 1 |
| TGGATGGAGT | 0.996 |
| TCAATACTAC | 1.89 |
| AGGGACCCAT | 1.07 |
| TGGTAACACA | 1.06 |
| TCCGAACACC | 1.54 |
| CACCGAAAGG | 0.978 |
| ATGGTATCTT | 0.983 |
| TTAAGACGAG | 0.981 |
| TCCAATTCGC | 1.06 |
| AGGCCACAAT | 1.12 |
| CTGATCTAGA | 0.998 |
| GATCAGTAAG | 1.01 |
| CTCATGCTAG | 1.03 |
| TTATACCGGG | 1.03 |
| CATTATATAG | 0.965 |

Source: the supplement of paper PMC10126150
